Laboratory results published in article PMC4336329 (PLoS ONE, 2015).
Out of some 310,000 compounds screened, about 14,000 (4.5%) showed an effect of 50% or more. The effect is printed as a negative number. Some of the results follow.

target: human ether-à-go-go-related gene (hERG) potassium channel (human, UniProt Q12809); test: primary screen, population patch clamp on CHO cells stably expressing hERG
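Note: peak tail current of the secondary pulse compared with the same well before compound.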

Sequence of human ether-à-go-go-related gene (hERG) potassium channel (Q12809 whole entry, looked up): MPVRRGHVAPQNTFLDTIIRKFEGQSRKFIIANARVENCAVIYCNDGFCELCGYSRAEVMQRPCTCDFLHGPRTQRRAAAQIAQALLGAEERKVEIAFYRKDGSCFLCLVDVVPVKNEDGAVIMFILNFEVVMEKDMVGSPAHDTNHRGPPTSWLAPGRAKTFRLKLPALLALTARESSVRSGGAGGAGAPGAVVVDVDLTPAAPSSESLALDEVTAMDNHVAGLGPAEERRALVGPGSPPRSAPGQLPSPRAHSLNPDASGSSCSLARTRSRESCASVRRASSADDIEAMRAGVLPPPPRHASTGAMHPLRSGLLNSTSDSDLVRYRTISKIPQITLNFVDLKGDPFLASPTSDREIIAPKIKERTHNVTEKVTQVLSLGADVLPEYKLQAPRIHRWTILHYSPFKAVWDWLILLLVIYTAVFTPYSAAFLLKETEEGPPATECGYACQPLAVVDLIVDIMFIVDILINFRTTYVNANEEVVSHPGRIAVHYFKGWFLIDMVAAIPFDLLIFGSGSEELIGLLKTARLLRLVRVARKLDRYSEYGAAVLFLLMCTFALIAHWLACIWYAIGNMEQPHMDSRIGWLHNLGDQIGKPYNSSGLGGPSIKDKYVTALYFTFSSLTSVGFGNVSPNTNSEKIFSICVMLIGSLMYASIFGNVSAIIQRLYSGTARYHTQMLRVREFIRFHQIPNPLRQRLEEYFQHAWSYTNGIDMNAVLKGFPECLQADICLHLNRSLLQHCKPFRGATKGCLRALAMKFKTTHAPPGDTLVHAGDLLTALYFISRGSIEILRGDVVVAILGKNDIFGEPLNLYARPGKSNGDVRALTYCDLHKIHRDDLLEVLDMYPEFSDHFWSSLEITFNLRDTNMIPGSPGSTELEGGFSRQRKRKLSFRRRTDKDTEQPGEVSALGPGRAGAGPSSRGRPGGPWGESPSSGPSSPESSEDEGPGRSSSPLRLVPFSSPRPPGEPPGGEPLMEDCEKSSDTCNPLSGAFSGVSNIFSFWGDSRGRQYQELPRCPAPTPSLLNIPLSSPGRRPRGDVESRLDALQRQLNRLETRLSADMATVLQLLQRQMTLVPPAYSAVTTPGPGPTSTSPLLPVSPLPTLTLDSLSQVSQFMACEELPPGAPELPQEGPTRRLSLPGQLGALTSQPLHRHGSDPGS

SMILES	hERG current change (%, negative = inhibition) at 10uM [%]
Cc1ccc(NC(=O)c2ccccc2)cc1-n1cnnn1	-6.74
O=C(CN1CCOCC1)N/N=C/c1cccc2ccccc12	16.7
COc1ccccc1N1CCN(C(=S)Nc2ccccc2)CC1	7.35
CC(C)n1nc(C(=O)N2CCN(S(=O)(=O)c3cccs3)CC2)c2ccccc2c1=O	-28.7
O=C(CCl)NC(Cc1c[nH]c2ccc(OCc3ccccc3)cc12)C(=O)O (stereo not drawn)	15.4
COc1ccc(-c2nc(SCc3ccccc3)n(S(C)(=O)=O)n2)cc1	-12.8
Cc1ccc(C2C(C#N)=C(N)Oc3n[nH]c(-c4cccs4)c32)cc1 (stereo not drawn)	22.3
Cc1cc(C)c(C2C3=C(Nc4c2c(C)nn4-c2ccccn2)c2ccccc2C3=O)c(C)c1 (stereo not drawn)	-0.0144
N#C/C(=C\c1cccnc1)C(=O)Nc1ccc(C(=O)O)cc1	6.25
COCCN(C(=O)c1ccc(C)o1)c1c(N)n(CC(C)C)c(=O)[nH]c1=O	-43.6
CCCc1cc(Nc2ccccc2)n2ncnc2n1	2.69
COc1cccc(/C=C/C(=O)c2ccc3c(c2)OCCO3)c1OC	7.09
Nc1cc(C(=O)OCC(=O)N2CCOCC2)ccc1Cl	17.8
Cc1cc(C)c2cc(C(=O)N3CCc4ccccc4C3)[nH]c2c1	4.18
CN1CCN(C(=O)C2CCCN(S(=O)(=O)c3ccc(F)cc3)C2)CC1 (stereo not drawn)	19.9
Cc1ccc(C)c(NP(=O)(Oc2ccccc2)Oc2ccccc2)c1	21.3
Cn1c(SCCN2CCCCC2)nnc1-c1ccccc1Br.O=C(O)C(=O)O	4.79
COCCNC(=O)CSc1nnc2c(Cl)cc(Cl)cn12	-4.17
COC(=O)C1CCN(c2ccc(Cl)nn2)CC1	20.9
CC(C)(C)NC(=S)NNC(=O)c1ccncc1	15.4
O=C(CNS(=O)(=O)c1ccc(Br)s1)N1CCN(c2ccc(F)cc2)CC1	-25.2
O=C1Nc2ccccc2/C1=N\N=C\c1ccc(O)c(O)c1	-3.02

SMILES	hERG current change (%, negative = inhibition) at 10uM [%]
CO/N=C/C(NC(=O)c1ccc(C(F)(F)F)cc1)C(=O)OC (stereo not drawn)	7.62
CCOC(=O)CC(=O)CSc1nc2c(cc1C#N)CCCCC2	15.7
Clc1ccc(-c2nc3ccccc3[nH]2)cn1	18.3
CCO.Cn1c2c(c(=O)n(C)c1=O)C1(C(=O)Nc3ccccc31)C(C#N)=C(N)O2 (stereo not drawn)	8.3
Cn1c(=O)n(C)c2cc(S(=O)(=O)N3CCCc4ccccc43)ccc21	-26.4
CCOC(=O)N1CCN(C(=O)c2ccc3nc(C)sc3c2)CC1	23.6
CSc1ccc(C2NC(=O)c3c(sc4c3CCN(C)C4)N2)cc1 (stereo not drawn)	-60.6
Cc1cccc(N2C(=S)NC3c4ccccc4OC2(C)C3C(=O)N(C)C)c1 (stereo not drawn)	8.88
CNC(=O)c1[nH]cnc1C(=O)N[C@@H](Cc1ccccc1)C(=O)OCc1ccccc1	3.76
COc1ccc(C2N(c3ccc4c(c3)OCCO4)C(=O)C2(F)F)cc1OC (stereo not drawn)	-8.22
CC(C)c1ccc(NC(=O)CNS(=O)(=O)c2ccc(F)cc2)cc1	3.89
C=C1CCN([C@@H](CC(C)C)C(=O)O)S(=O)(=O)c2ccccc21	22.6
CC1CCc2c(sc(/N=C/c3cccnc3)c2C(N)=O)C1 (stereo not drawn)	10.8
CC(C)CN(C(=O)COC(=O)c1ccc2c(c1)NC(=O)CS2)C1CCS(=O)(=O)C1 (stereo not drawn)	13.1
Cc1ccc(C(=O)N/C(=C/c2cccc([N+](=O)[O-])c2)C(=O)NCC2CCCO2)cc1 (stereo not drawn)	-68.4
COc1ccc(-c2nc(-c3ccccn3)ncc2S(C)(=O)=O)cc1	-7.31
COc1ccc(CNC(=O)CNC(=O)[C@@H]2Cc3ccccc3CN2)cc1	17.4
CC(C)Cn1c(N)c(C(=O)NCCN2CCOCC2)c2nc3ccccc3nc21	-72.7
COc1ccccc1-n1c(-c2cn(C)nc2C)n[nH]c1=S	18.4
COP(=O)(OC)C(O)C(Cl)(Cl)Cl (stereo not drawn)	22.7
CCCCC/C=C/C1=CC(=O)C[C@H](c2ccc3c(c2)OCO3)C1	-14.7
CCN1C(=O)[C@H]2[C@@H](c3ccc(-c4cccc(Cl)c4)cc3)N[C@@](Cc3ccccc3)(C(=O)OC)[C@H]2C1=O.O=C(O)C(F)(F)F	8.35

SMILES	hERG current change (%, negative = inhibition) at 10uM [%]
COc1cccc(CNC(=O)CCNS(=O)(=O)c2ccc(Br)s2)c1	-10.2
O=C(/C=C/c1ccc(N2CCOCC2)cc1)c1ccccc1	-1.16
Cc1ccc(-c2[nH]nc(N)c2N=Nc2ccccc2C)cc1	14.9
CC(=O)O[C@H]1CC[C@@]2(C)C(=CC[C@@H]3[C@@H]2CC[C@]2(C)C(=O)CC[C@@H]32)C1	21.1
CCN(CC)C(=O)CSc1nnc(-c2ccccn2)n1-c1ccc(C)c(C)c1	-24.8
CCN(C(=O)C(C)N1C(=O)/C(=C/c2cccs2)SC1=S)C1CCS(=O)(=O)C1 (stereo not drawn)	-27.3
COc1ccc(NC2CCCN(C(=O)C3(C)CCCCC3)C2)cc1OC (stereo not drawn)	11.3
O=C(OCc1cccc([N+](=O)[O-])c1)c1ccncc1	-18.8
COCCNC(=O)CCn1nc(-c2ccc(C)cc2)ccc1=O	-34.4
O=C(Cn1c(=O)n(Cc2ccccc2)c(=O)c2cc(Cl)ccc21)NCC1CCCO1 (stereo not drawn)	-10.2
CC(C)C(C(=O)NCC1CCCO1)N(C(=O)CNS(=O)(=O)c1ccc(F)cc1)c1ccccc1 (stereo not drawn)	-0.122
Cc1[nH]nc(-c2ccc(OCc3cnn(-c4ccccc4)c3)cc2O)c1Oc1ccc(Cl)cc1	13.6
COc1cc(OC)c(Nc2cc(C)nc3nc(C)nn23)cc1Cl	6.1
Cc1ccc(Nc2nnc(SCC(=O)c3c(N)n(C4CC4)c(=O)[nH]c3=O)s2)cc1C	11.6
CSc1ncc(S(=O)(=O)c2ccccc2)c(=O)[nH]1	5.18
COc1cc(OC)c(OC)cc1CN1CCCC(C(=O)N2CCCCC2)C1.O=C(O)C(=O)O (stereo not drawn)	-1.45
O=S1(=O)N=C(N/N=C/c2ccco2)c2ccccc21	13.1
O=C(CN1CCOCCOCCOCC1)Nc1ccccc1	12.4
O=C(Nc1ccc(Cl)cn1)c1ccc(-c2cc(Cl)ccc2Cl)o1	-1.49
Cc1cc(C)nc(NC(=O)c2c(Cl)cccc2Cl)n1	-1.27
CN(C)/C=C/C(=C\C(=O)C(F)(F)F)Nc1ccc(C(F)(F)F)cc1	2.83
O=C(NC(=S)Nc1ccc(S(=O)(=O)N2CCCCC2)cc1)c1cccs1	2.12

SMILES	hERG current change (%, negative = inhibition) at 10uM [%]
Cc1ccccc1CNC(=O)C1CCCN(c2nnc(C)c3c(C)n(-c4ccccc4)nc23)C1 (stereo not drawn)	-5.38
CCOC(=O)c1c(NC(=O)COc2ncnc3ccccc23)sc(C)c1C	-1.81
Cc1noc(C)c1C(=O)OCC(=O)NCCc1ccccc1	4.78
Cn1nnc(C(O)CN2CCOCC2)n1 (stereo not drawn)	-0.784
COc1ccc(S(=O)(=O)Nc2c(C(=O)O)[nH]c3ccccc23)c(OC)c1	-2.48
O=C(Nc1ccccc1Br)C1CCC(=O)N1Cc1ccccc1Cl (stereo not drawn)	-5.41
COc1ccc2c(c1OC)C(=O)N(c1ccc3c(c1)CCC3)C2=O	1.86
O=C(CN1CCOCC1)Nc1c2c(nc3c1CCC3)CCC2.O=C(O)C(=O)O	15.4
Cc1cccc(N(C(=O)CCC(=O)Nc2cc(C)on2)C(C(=O)NC2CCCC2)c2ccc(C)o2)c1 (stereo not drawn)	8.88
CCOC(=O)Cc1nnc(Nc2cccc(C)c2)c2ccccc12	-18.6
CC(NC(=O)Cc1ccc([N+](=O)[O-])cc1)c1ccc2c(c1)OCO2 (stereo not drawn)	-19.6
CCOC(=O)C1=C(C)OC(N)=C(C(=O)OCC)[C@@]12C(=O)N(CC(N)=O)c1ccccc12	11.5
Cc1cc(Br)ccc1NC(=O)CNC(=O)CN1C(=O)NC2(CCCCCC2)C1=O	2.17
O=C1Nc2cc(S(=O)(=O)N3CCCC3)ccc2N2CCCC12 (stereo not drawn)	4.26
NC(=O)COC(=O)c1cccc(S(=O)(=O)N2CCN(c3ccc(F)cc3)CC2)c1	0.497
COc1ccc(/C=N/n2c(-c3n[nH]c4c3CCC4)n[nH]c2=S)c(OC)c1OC	20.7
O=C(O)CCNS(=O)(=O)c1ccc2ccccc2c1	16.6
COc1ccc(CCNC(=O)C23CCC(C)(C(=O)O2)C3(C)C)cc1OC (stereo not drawn)	1.89
O=S(=O)(Nc1ccc2nc(C(F)(F)F)[nH]c2c1)c1ccccc1	8.26
O=C(/C=C/c1ccco1)Nc1ccc(Oc2ccc(Cl)cc2)cc1	16.1
CCN(CC)C(=O)Cn1cc(/C=C2\C(=O)NC(=O)N(c3ccccc3F)C2=O)c2ccccc21	6.39
